Experimental data reported in publication PMC12136788.
This is one part of the list.

B1: chr14:53113150:53113151:-_ENSG00000197930_ENST00000395686|hu_mus|motif|central (ssRNA)
RNA: GGGAGUUCUACAGUCCGACGAUCGCCCCACAGGCGGCACUUGAAGCAGCCAACACAGUCCAUGAUUCUUGAAAUGUUCCGGAAGUGUAGCCGGAAGUCCUCCUUUAGUUUAUGUGCUUCGUUUUUAUCCCCAGCAAAAAAAGACAACAGAGGAUUGAGCAUCA
B2: chr2:65473824:65473825:+_ENSG00000138071_ENST00000260641|hu_mus|motif|central (ssRNA)
RNA: GGGAGUUCUACAGUCCGACGAUCGUUUUUGGUUGGAUUCAUGGGAGGUUCUGUAAGUAAAAUCUUGCAGUUUCUGGUGUCGGUAUUGAGUUUCUCUGGUCCAAAUGUGUAGUCCCACAGGUGCUUCAUGUCAUCCCAAUUCCGCAACAGAGGAUUGAGCAUCA
B3: 139369925_139370045_2156_CDS_ENSG00000148396_ENST00000313050|human|control|control (ssRNA)
RNA: GGGAGUUCUACAGUCCGACGAUCCCCCUGGGUCCUGGCUGAAGGCCUCUUCUCGGGUGCUGGAUACACAGUAUCCAAGGGCGGUGCCCCUGCGUGCGGAAGCAUGUGCACAGCUUCCGUGGUGGAGUUAAGAGGCAGGGGACACAACAGAGGAUUGAGCAUCA
B4: 32628644_32630241_2191_3pUTR_ENSMUSG00000022797_ENSMUST00000023486|mouse|control|control (ssRNA)
RNA: GGGAGUUCUACAGUCCGACGAUCAAGAUAUGUCGGAAAGGAGACUCUCUUGGAGAUACAUAGGGCGACAGGAAGUGAUACUCCACUUUCAUAAUACGAUCAUUGAUUUCCCUCAUGACAAAUCUGUUUGUUUUCUCAGCAUUACAACAGAGGAUUGAGCAUCA
B5: chr7:141438946:141438947:+_ENSG00000106028_ENST00000265304|hu_mus|hu_hu_hu_mus_True|1_78 (ssRNA)
RNA: GGGAGUUCUACAGUCCGACGAUCGACGAAAUACCUGUAACACAGGUCUUCGAAACAUUCUAUUUUCUUUUCUUACAACCUAAUCUUUAGGCUUUUCCUAAAGGAAAGAAAGAAAAGAGAAAAAUGAUAAAUCAAGAACUUCCGCAACAGAGGAUUGAGCAUCA
B6: chr16:56712917:56712918:-_ENSMUSG00000022757_ENSMUST00000065515|mus_hu|motif|central (ssRNA)
RNA: GGGAGUUCUACAGUCCGACGAUCAUGAUUAGCUUCCCACUUAGAUCCAACUGUCCGUUCAUGGUGGACUCCAGGAUGUUCGGUAUAUACAACUCUAGAGAAAGACCAGGACGCAUGCGCGACGGCGCGAGGCGCAGGGCUGGCCAACAGAGGAUUGAGCAUCA
B7: chr7:135850644:135850645:-_ENSMUSG00000048170_ENSMUST00000057557|mus_mus|FALSE|FALSE (ssRNA)
RNA: GGGAGUUCUACAGUCCGACGAUCGUAGAGGUGUUCCGUGAAGGUACUGUUCUGCGGGCAACCACUCAGGUUAACUGUAAAUUUUCCUAGAGGAAGUACAUCUCUUCUUGUAUACACUGUAGAGAUGAGAUGCAAUAUAAGAUACAACAGAGGAUUGAGCAUCA
B8: 90017393_90017513_783_CDS_ENSMUSG00000057706_ENSMUST00000082237|mouse|control|control (ssRNA)
RNA: GGGAGUUCUACAGUCCGACGAUCUGGCACCCUCACUUGGAUAGUGGUCUGUCCCGGCAGGUUGGGCGGUCCGGGCACAGCUCCGUUGAGAGCCGUGUUCUUGUUACGAGAGGCUCGGAUCAUGGAGAAGUGCUCUGCGGCAGACAACAGAGGAUUGAGCAUCA
B9: 31616714_31617068_550_CDS_ENSG00000204463_ENST00000375976|human|control|control (ssRNA)
RNA: GGGAGUUCUACAGUCCGACGAUCGUGAACAUCCACAGCAGAGCCGUCACUAGGAAGAUUGAAGGUUCCAACCAUGACAUAGCUGUUGGCAUUCCGGUCAUGAACAGAGGCCCCAGGCCCCCGAGUACCAGGGGGGGAUCCCCCCAACAGAGGAUUGAGCAUCA
B10: chr11:80063784:80063785:+_ENSMUSG00000017686_ENSMUST00000092857|mus_hu|FALSE|FALSE (ssRNA)
RNA: GGGAGUUCUACAGUCCGACGAUCCAUUAAGUUUCUUCCAAGAAGAGCCUGAAGAACUCCACUUUUCCCACAGUUUUUCACUCCAAUUACAUUACAUCUGAACACAUUUCUUUGAGUUUGUUUUUUCUGCAGGUCUAUCUUUUUCAACAGAGGAUUGAGCAUCA
B11: 5264709_5264829_1586_CDS_ENSG00000029725_ENST00000262477|human|control|control (ssRNA)
RNA: GGGAGUUCUACAGUCCGACGAUCUCUUUCCUGAUCUUUGGUUAACAUAAACCCACUUGGCAUCUGGAGUGACCCAAGGGAUGCAGUAUCAAAGUUCUCAGACACUGAAUCUGCUCCUACCAGUGGUCCAAAAUCUGACUCGUCCAACAGAGGAUUGAGCAUCA
B12: chr22:32879901:32879902:+_ENSG00000100225_ENST00000397426|hu_mus|hu_hu_hu_mus_False|18_28 (ssRNA)
RNA: GGGAGUUCUACAGUCCGACGAUCCUCUUCCAUACUCAUGGCAUCCUGAAUUGACUCAGCUUCAACAUUUUGACUAGGCCCUUCCAUACUGUCAUCAGUCCAGGCAUCAGACUGGGCUGCCUGUCCUUGGGAUGAAUCAGUCCCCAACAGAGGAUUGAGCAUCA
B13: chr1:39494447:39494448:+_ENSG00000168653_ENST00000372967|hu_mus|hu_hu_hu_mus_False|1_38 (ssRNA)
RNA: GGGAGUUCUACAGUCCGACGAUCGCACCGAGCGGCGUUCUUAUAGGGCUGUUCUGCGCUUAGGAACAUAAAGUGCCGGUCCAGGCUGAUGCCCAGCCUUUUCUGGAUGUCAAGGAAAGGCAUGGCUCUGCAGUGCCCCCUUGACAACAGAGGAUUGAGCAUCA
B14: chr16:94664806:94664807:+_ENSMUSG00000040785_ENSMUST00000117648|mus_mus|motif|central (ssRNA)
RNA: GGGAGUUCUACAGUCCGACGAUCAUUAGGACUCUCAAAGUAUGCAGCGGCAUUUUCAUCUGCUCUGUUGCUGGCGGCAAAAGAUGGCACCACUGGCAUGGAUCUUUGCAUUGGAUACUCAGAAGAAAUGUUGGCCAAAGGUGUCAACAGAGGAUUGAGCAUCA

The binders below were run against T1, UNK ZnF1-3 (human, UniProt Q9C0B0 31-174) (assay: nsRBNS (natural sequence RNA bind-n-seq); RBNS binding buffer (assumed for nsRBNS): 25 mM Tris pH 7.5, 150 mM KCl, 3 mM MgCl2, 0.01% Triton X-100, 500 ug/ml BSA, 20 U/ml SUPERase-In, 4 C; UNK is unkempt and MSI1 is Musashi-1; names of the RNAs are library labels; protein concentration not given here; high values mean tight binding).
T1 sequence: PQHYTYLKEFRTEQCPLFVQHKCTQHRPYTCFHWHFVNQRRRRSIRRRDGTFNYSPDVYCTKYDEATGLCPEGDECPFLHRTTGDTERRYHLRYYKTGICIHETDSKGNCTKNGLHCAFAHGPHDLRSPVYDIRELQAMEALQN

| Binder | binding signal [enrichment R] |
| --- | --- |
| B1 | 1.52 |
| B2 | 0.7 |
| B3 | 0.384 |
| B4 | 1.1 |
| B5 | 0.434 |
| B6 | 0.774 |
| B7 | 0.939 |
| B8 | 0.905 |
| B9 | 1.59 |
| B10 | 0.577 |
| B11 | 0.771 |
| B12 | 0.965 |
| B13 | 0.552 |
| B14 | 1.18 |
